Assay results from the supplement of paper PMC3334620.
Whole data set: some 33,000 sequences, median “E-score (-0.5 to 0.5)” near -0.04, cut for the highest 2% near 0.36. The list shows a part of the results.

These sequences were tested against T1, Hmlalpha2 (UniProt P0CY09) (assay: PBM E-score (8-mer binding enrichment) (E-score (-0.5 to 0.5)); higher = stronger / more preferred TF binding; most listed sequences are background and not binding sites). Conditions: protein concentration: 200 nM; construct: GST-full length.
T1 sequence: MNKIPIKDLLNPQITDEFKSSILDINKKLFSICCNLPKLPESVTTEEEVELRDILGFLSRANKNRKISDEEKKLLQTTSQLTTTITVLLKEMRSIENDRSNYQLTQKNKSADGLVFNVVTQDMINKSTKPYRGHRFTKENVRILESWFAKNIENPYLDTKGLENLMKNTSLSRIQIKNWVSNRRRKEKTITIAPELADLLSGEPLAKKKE
How it was run: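 Masliner-normalised scans of fluorescent anti-GST signal were the basis for scoring. That signal came from GST-tagged yeast transcription factors applied at about 100-200 nM to double-stranded universal all-10-mer Agilent arrays on fresh or once-stripped slides. Each ungapped eight-base word, pooled with its reverse complement, received an E-score from the Universal PBM Analysis Suite.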

Row | Sequence | PBM E-score
1 | CGCTTGAG | -0.247
2 | AACGCAGC | 0.254
3 | AAGGTAGT | -0.0351
4 | AGTAACGA | 0.0802
5 | AGGAACTC | -0.163
6 | GACACATA | 0.26
7 | AGATAAAA | 0.275
8 | AATTTCGT | 0.114
9 | ACGTATGG | 0.0353
10 | ACTGTCTA | 0.194
11 | ACTTCAAG | 0.196
12 | AACAGGGG | -0.0507
13 | GCTTCGCA | -0.196
14 | ATACGATG | 0.19
15 | AGGGCAAG | -0.053
16 | GAGCGAGC | -0.0856
17 | ATGAACAC | 0.3
18 | AAAAATTT | -0.0158
19 | GCAAAGAA | 0.0243
20 | ACGAAAAT | 0.233
21 | CACAGCCC | 0.00326
22 | CAAACCGA | -0.0373
23 | GTGAAGGA | -0.0372
24 | ACCAGAGG | -0.181
25 | ACAATAGG | -0.0369

Row | Sequence | PBM E-score
26 | AATAAAGA | 0.106
27 | AATGCATA | 0.0844
28 | AGCGGTAA | 0.0678
29 | ATAGGCAC | -0.216
30 | ACTATACG | 0.0826
31 | AGTTAGCA | 0.0472
32 | TGTCCCAA | -0.0785
33 | AGCCCGAT | -0.195
34 | ATCGTGGG | -0.0367
35 | CGTATCTC | -0.0211
36 | ATAGTCTG | -0.0131
37 | AGTGCGAG | -0.357
38 | GACTCCTC | -0.169
39 | AGAGGCCA | -0.241
40 | CCGGGATC | -0.0963
41 | TCGTCTAA | -0.0512
42 | GACTGGGA | -0.0286
43 | GACAGGGC | -0.124
44 | ATAGCGAG | 0.00326
45 | CTCCCAAC | -0.252
46 | AGGTCAAA | -0.122
47 | CTCGTCGC | -0.232
48 | ACTCAGCA | 0.0533
49 | TCTCCAGA | -0.21
50 | AAGAGTGA | 0.169

Row | Sequence | PBM E-score
51 | CTACCAAA | -0.0375
52 | GCGTCATA | 0.148
53 | AGAACACT | 0.105
54 | GGTTGCTA | -0.283
55 | ACCTGTGC | -0.128
56 | GTCTTCGA | -0.0391
57 | CGAGTGAG | -0.136
58 | ATAAATCG | -0.0429
59 | AGAAAGTC | -0.1
60 | GAGTCGAC | -0.107
61 | ACATAGTC | 0.313
62 | AGGCTTGG | -0.223
63 | AACCCGCA | -0.0975
64 | GGAATTAA | 0.183
65 | CCGGAAAC | -0.134
66 | GGTCAGAA | -0.161
67 | CATACAAG | 0.0581
68 | ATGTGTTG | 0.39
69 | CTCCGAAC | -0.0663
70 | CCATGAGC | -0.209
71 | ACTCTCAG | -0.154
72 | CGTCGACA | 0.21
73 | ACCCTGCT | -0.269
74 | GACAAGCC | 0.157
75 | AGGTTGGA | -0.155

Row | Sequence | PBM E-score
76 | CTTTCCTA | -0.306
77 | CTGTTGAA | 0.259
78 | ATCGTGTG | 0.313
79 | ACTCAAGG | -0.0982
80 | GTACAAAA | 0.307
81 | TACCCCGA | -0.114
82 | ATTTCACC | 0.0687
83 | CAACGTTC | -0.00889
84 | ATATCCCA | -0.0355
85 | CGTCAATC | 0.0846
86 | CAGTTGTA | 0.138
87 | AGAAGTAG | -0.0478
88 | ATTTTGGC | 0.0639
89 | ACTGGTTA | 0.103
90 | ACTTTAAC | 0.188
91 | ACAGGCCA | -0.0294
92 | ACAAGGGC | 0.133
93 | CCCTAAGG | -0.233
94 | AGTGTAAG | 0.116
95 | AGCGGAGA | -0.216
96 | GATTGCGC | -0.0304
97 | TCAGTCAA | 0.141
98 | CAGGGCGC | -0.0958
99 | ACAGCCAA | -0.0915
100 | GGCGACAA | -0.127

Row | Sequence | PBM E-score
101 | CGCGGAAC | -0.0278
102 | GGGGACCC | -0.369
103 | AGGCGACG | -0.14
104 | AATCTCCT | -0.124
105 | CCCGTGAC | -0.226
106 | ACTATATC | 0.0968
107 | GTCGGATA | -0.0106
108 | CATAGCTA | -0.138
109 | CGAGGCCA | -0.087
110 | ATGGAGAG | -0.115
111 | ACAACAGG | 0.155
112 | GATTTTAA | 0.188
113 | ATGCAAAT | 0.193
114 | ATGAGTGC | -0.172
115 | CTAAAAAA | 0.118
116 | AACCATCA | 0.0303
117 | ATTCATAC | 0.147
118 | GCTCTACA | 0.288
119 | AGTACTAC | 0.237
120 | AGAGAAGC | -0.0779
121 | GGCTGGCA | -0.235
122 | AAAATCAG | 0.108
123 | CAAGGTAA | 0.182
124 | CTTATCAA | 0.0644
125 | CTCTTATC | 0.05

Row | Sequence | PBM E-score
126 | ATGGATTG | 0.0786
127 | CATACCGG | -0.154
128 | ATATTCAT | 0.202
129 | ACGATTGG | 0.0327
130 | CTGGTGTA | 0.0516
131 | CCATCTCG | -0.35
132 | AGCGGTTA | -0.103
133 | ATGCCTTC | -0.151
134 | AGGGAGCG | -0.31
135 | AAAGATCA | 0.158
136 | ATCAAGGA | -0.0568
137 | ACCGACCA | 0.0128
138 | ACACCTAC | 0.039
139 | CCTTTCCC | -0.176
140 | ATGTAAAA | 0.474
141 | ACCGTCTC | -0.0522
142 | CCGTTGAC | -0.133
143 | GCAGACTA | -0.0219
144 | CATGTTCG | 0.259
145 | CCGAAAGC | -0.185
146 | TAACGTGA | 0.208
147 | GGGATGGA | -0.132
148 | CCGTTTCC | -0.222
149 | CGTCCCTC | -0.137
150 | AAGTGGCT | -0.181

Row | Sequence | PBM E-score
151 | CAAGGCCG | -0.131
152 | AAGTAGTC | 0.0858
153 | CGCTGCAG | -0.0676
154 | TCAGAGGA | -0.307
155 | GGCATAGA | -0.107
156 | AGCCACTC | -0.2
157 | GATGTTAC | 0.304
158 | CGAAAAAA | 0.161
159 | ATCCCAGC | -0.138
160 | ACGCTGCG | -0.0283
161 | CTTACCTC | -0.262
162 | AGTCAAGA | -0.142
163 | AAGGTGAA | -0.132
164 | AACCGTAG | -0.25
165 | AAAATTTT | -0.109
166 | ATTTGCTA | 0.0125
167 | GTAGAAAC | 0.307
168 | GGACTTAA | -0.0169
169 | AAAGTTCG | 0.0197
170 | CGAACCAA | -0.0324
171 | AAAATCAC | 0.145
172 | CCCGCGAG | -0.168
